Data on 11 molecules can be found in US20240358826A1 (ORIONIS BIOSCIENCES, published 2024).

What all share (test): cell-based or functional assay
For experiment [1], the target named is T1, IL-1R (IL-1 Receptor) (UniProt P14778 18-569, limits assumed).
T1 sequence (looked up): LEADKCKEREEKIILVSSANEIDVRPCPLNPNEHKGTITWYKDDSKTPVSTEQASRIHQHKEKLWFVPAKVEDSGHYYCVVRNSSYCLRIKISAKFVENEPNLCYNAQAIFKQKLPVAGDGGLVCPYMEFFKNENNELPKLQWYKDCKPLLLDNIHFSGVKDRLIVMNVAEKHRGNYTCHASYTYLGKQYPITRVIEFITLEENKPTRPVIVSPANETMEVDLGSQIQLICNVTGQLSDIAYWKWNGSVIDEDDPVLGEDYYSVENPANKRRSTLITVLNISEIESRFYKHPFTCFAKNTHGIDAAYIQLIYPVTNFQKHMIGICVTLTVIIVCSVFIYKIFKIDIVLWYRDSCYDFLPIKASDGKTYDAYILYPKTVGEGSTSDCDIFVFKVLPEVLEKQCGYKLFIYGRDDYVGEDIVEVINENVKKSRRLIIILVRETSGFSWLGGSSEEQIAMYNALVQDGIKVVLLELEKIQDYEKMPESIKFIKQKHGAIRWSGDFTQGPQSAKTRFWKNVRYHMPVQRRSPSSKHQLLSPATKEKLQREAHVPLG

Experiment [2] deals with T2, human CD8 alpha (human, UniProt P01732 22-235).
The target of experiment [3] is T1, IL-1R (IL-1 Receptor). This is another data set of the same source.
In experiment [4] the target is T2, human CD8 alpha. This is another data set of the same source.
T2 sequence (P01732 22-235): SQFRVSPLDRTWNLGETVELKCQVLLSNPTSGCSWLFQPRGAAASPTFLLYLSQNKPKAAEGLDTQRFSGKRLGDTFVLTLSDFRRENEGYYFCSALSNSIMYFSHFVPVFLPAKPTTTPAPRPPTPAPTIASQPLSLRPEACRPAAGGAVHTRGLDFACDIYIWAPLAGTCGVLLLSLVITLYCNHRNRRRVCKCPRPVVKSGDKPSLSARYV
Experiment [5] has as its target T1, IL-1R (IL-1 Receptor). This is another data set of the same source.
The target of experiment [6] is T1, IL-1R (IL-1 Receptor). The source holds these as a separate data set.

Like-named read-outs stand apart in the source and are kept apart here. A value given as a limit tells only on which side of the number the result lay.

B1: CD8 VHH_5GGS_Fc_hole + Fc-knob_20GGS_IL1α delta 1-6_R16A (Fc fusion)
chain 1: DVQLQESGGGLVQPGGSLRLSCAASGSIFSINVMGWYRQTPGKERELVAKITNFGITSYADSAQGRFTISRGNAKNTVYLQMNSLKPEDTAVYYCNLDTTGWGPPPYQYWGQGTQVTVSSGGSGGSGGSGGSGGSDKTHTCPPCPAPEAAGGPSVFLFPPKPKDTLMISRTPEVTCVVVDVSHEDPEVKFNWYVDGVEVHNAKTKPREEQYNSTYRVVSVLTVLHQDWLNGKEYKCQVSNKALPAPIEKTISKAKGQPREPQVCTLPPSRDELTKNQVSLSCAVKGFYPSDIAVEWESNGQPENNYKTTPPVLDSDGSFFLVSKLTVDKSRWQQGNVFSCSVMHEALHNHYTQKSLSLSPGK
chain 2: [letters of human IgG1 Fc with changes not shown]GGSGGSGGSGGSGGSGGSGGSGGSGGSGGSGGSGGSGGSGGSGGSGGSGGSGGSGGSGGSLSNVKYNFMAIIKYEFILNDALNQSIIRANDQYLTAAALHNLDEAVKFDMGAYKSSKDDAKITVILRISKTQLYVTAQDEDQPVLLKEMPEIPKTITGSETNLLFFWETHGTKNYFTSVAHPNLFIATKQDYWVCLAGGPPSITDFQILENQA
Regarding B1, in the experiment with IL-1R (IL-1 Receptor) [1], the “NF-KB signal, -CD8 cells, 1 ng/ml” value was 0.02 rel. to 100 ng/ml IL1α; the “NF-KB signal, -CD8 cells, 10 ng/ml” value was 0.01 rel. to 100 ng/ml IL1α; the “NF-KB signal, -CD8 cells, 100 ng/ml” value was 0.03 rel. to 100 ng/ml IL1α; the “NF-KB signal, -CD8 cells, 1000 ng/ml” value was 0.36 rel. to 100 ng/ml IL1α.

B2: CD8 VHH_5GGS_Fc_hole + Fc-knob_20GGS_IL1α delta 1-6_N29D_C141A (Fc fusion)
chain 1: B1 chain 1
chain 2: [letters of human IgG1 Fc with changes not shown]GGSGGSGGSGGSGGSGGSGGSGGSGGSGGSGGSGGSGGSGGSGGSGGSGGSGGSGGSGGSLSNVKYNFMRIIKYEFILNDALDQSIIRANDQYLTAAALHNLDEAVKFDMGAYKSSKDDAKITVILRISKTQLYVTAQDEDQPVLLKEMPEIPKTITGSETNLLFFWETHGTKNYFTSVAHPNLFIATKQDYWVALAGGPPSITDFQILENQA
Regarding B2, in the experiment with human CD8 alpha [2], the “EC50 CD8 transfected (NF-KB reporter, HEK293T)” value (shortened to “EC50 CD8 transfected”) stood at 0.65 ng/mL and the “Ratio (EC50 mock / CD8 transfected)” value came out at 4810. Also, the “EC50 mock transfected (NF-KB reporter, HEK293T)” value (from here on “EC50 mock transfected”) in the experiment with IL-1R (IL-1 Receptor) [3] was 3120 ng/mL.

B3: CD8 VHH_5GGS_Fc_hole + Fc-knob_20GGS_IL1α delta 1-6_N29G (Fc fusion)
chain 1: B1 chain 1
chain 2: [letters of human IgG1 Fc with changes not shown]GGSGGSGGSGGSGGSGGSGGSGGSGGSGGSGGSGGSGGSGGSGGSGGSGGSGGSGGSGGSLSNVKYNFMRIIKYEFILNDALGQSIIRANDQYLTAAALHNLDEAVKFDMGAYKSSKDDAKITVILRISKTQLYVTAQDEDQPVLLKEMPEIPKTITGSETNLLFFWETHGTKNYFTSVAHPNLFIATKQDYWVCLAGGPPSITDFQILENQA
Regarding B3, in the experiment with human CD8 alpha [4], the “EC50 CD8 cell line (SEAP, HekBlue-IL-1β)” value stood at 0.0005 ng/mL and the “Ratio (EC50 parental / CD8 cell line)” value was found to be 6040. Further, the “EC50 parental cell line (SEAP, HekBlue-IL-1β)” value (shortened to “EC50 parental cell line”) with IL-1R (IL-1 Receptor) [5] stood at 3.2 ng/mL.

B4: CD8 VHH_5GGS_Fc_hole + Fc-knob_20GGS_IL1α delta 1-6_R16G (Fc fusion)
chain 1: B1 chain 1
chain 2: [letters of human IgG1 Fc with changes not shown]GGSGGSGGSGGSGGSGGSGGSGGSGGSGGSGGSGGSGGSGGSGGSGGSGGSGGSGGSGGSLSNVKYNFMGIIKYEFILNDALNQSIIRANDQYLTAAALHNLDEAVKFDMGAYKSSKDDAKITVILRISKTQLYVTAQDEDQPVLLKEMPEIPKTITGSETNLLFFWETHGTKNYFTSVAHPNLFIATKQDYWVCLAGGPPSITDFQILENQA
B4: in the experiment with IL-1R (IL-1 Receptor) [1], the “NF-KB signal, -CD8 cells, 1 ng/ml” value was 0.01 rel. to 100 ng/ml IL1α; the “NF-KB signal, -CD8 cells, 10 ng/ml” value is 0.02 rel. to 100 ng/ml IL1α; the “NF-KB signal, -CD8 cells, 100 ng/ml” value is 0.01 rel. to 100 ng/ml IL1α; the “NF-KB signal, -CD8 cells, 1000 ng/ml” value was 0.02 rel. to 100 ng/ml IL1α.

B5: CD8 VHH_5GGS_Fc_hole + Fc-knob_20GGS_IL1α delta 1-6_N29D (Fc fusion)
chain 1: B1 chain 1
chain 2: [letters of human IgG1 Fc with changes not shown]GGSGGSGGSGGSGGSGGSGGSGGSGGSGGSGGSGGSGGSGGSGGSGGSGGSGGSGGSGGSLSNVKYNFMRIIKYEFILNDALDQSIIRANDQYLTAAALHNLDEAVKFDMGAYKSSKDDAKITVILRISKTQLYVTAQDEDQPVLLKEMPEIPKTITGSETNLLFFWETHGTKNYFTSVAHPNLFIATKQDYWVCLAGGPPSITDFQILENQA
In the case of B5, in the experiment with human CD8 alpha [4], the “EC50 CD8 cell line (SEAP, HekBlue-IL-1β)” value amounted to 0.27 ng/mL and the “Ratio (EC50 parental / CD8 cell line)” value was 293. The “EC50 parental cell line” value with IL-1R (IL-1 Receptor) [5] came out at 79.2 ng/mL.

B6: CD8 VHH_5GGS_Fc_hole + Fc-knob_20GGS_IL1α delta 1-6_S31A_C141S (Fc fusion)
chain 1: B1 chain 1
chain 2: [letters of human IgG1 Fc with changes not shown]GGSGGSGGSGGSGGSGGSGGSGGSGGSGGSGGSGGSGGSGGSGGSGGSGGSGGSGGSGGSLSNVKYNFMRIIKYEFILNDALNQAIIRANDQYLTAAALHNLDEAVKFDMGAYKSSKDDAKITVILRISKTQLYVTAQDEDQPVLLKEMPEIPKTITGSETNLLFFWETHGTKNYFTSVAHPNLFIATKQDYWVSLAGGPPSITDFQILENQA
As for B6, in the experiment with human CD8 alpha [2], the “EC50 CD8 transfected” value worked out at 1.3e-06 ng/mL and the “Ratio (EC50 mock / CD8 transfected)” value amounted to 3.8e+07. In addition, in the experiment with IL-1R (IL-1 Receptor) [3], the “EC50 mock transfected” value was 50.5 ng/mL.

B7: CD8 VHH_5GGS_Fc_hole + Fc-knob_20GGS_IL1α delta 1-6_S31G (Fc fusion)
chain 1: B1 chain 1
chain 2: [letters of human IgG1 Fc with changes not shown]GGSGGSGGSGGSGGSGGSGGSGGSGGSGGSGGSGGSGGSGGSGGSGGSGGSGGSGGSGGSLSNVKYNFMRIIKYEFILNDALNQGIIRANDQYLTAAALHNLDEAVKFDMGAYKSSKDDAKITVILRISKTQLYVTAQDEDQPVLLKEMPEIPKTITGSETNLLFFWETHGTKNYFTSVAHPNLFIATKQDYWVCLAGGPPSITDFQILENQA
On to B7, for which, in the experiment with human CD8 alpha [4], the “EC50 CD8 cell line (SEAP, HekBlue-IL-1β)” value worked out at 0.086 ng/mL and the “Ratio (EC50 parental / CD8 cell line)” value stood at 97. The “EC50 parental cell line” value with IL-1R (IL-1 Receptor) [5] amounted to 8.3 ng/mL.

B8: CD8 VHH_5GGS_Fc_hole + Fc-knob_20GGS_IL1α delta 1-6_N29A_C141A (Fc fusion)
chain 1: B1 chain 1
chain 2: [letters of human IgG1 Fc with changes not shown]GGSGGSGGSGGSGGSGGSGGSGGSGGSGGSGGSGGSGGSGGSGGSGGSGGSGGSGGSGGSLSNVKYNFMRIIKYEFILNDALAQSIIRANDQYLTAAALHNLDEAVKFDMGAYKSSKDDAKITVILRISKTQLYVTAQDEDQPVLLKEMPEIPKTITGSETNLLFFWETHGTKNYFTSVAHPNLFIATKQDYWVALAGGPPSITDFQILENQA
Consider B8, for which, in the experiment with human CD8 alpha [2], the “EC50 CD8 transfected” value came out at 6.64 ng/mL and the “Ratio (estimated targeting window)” value was over 1000. Further, in the experiment with IL-1R (IL-1 Receptor) [3], the “EC50 mock transfected” value was over 1000 ng/mL.

B9: CD8 VHH_5GGS_Fc_hole + Fc-knob_20GGS_IL1α delta 1-6_S31A (Fc fusion)
chain 1: B1 chain 1
chain 2: [letters of human IgG1 Fc with changes not shown]GGSGGSGGSGGSGGSGGSGGSGGSGGSGGSGGSGGSGGSGGSGGSGGSGGSGGSGGSGGSLSNVKYNFMRIIKYEFILNDALNQAIIRANDQYLTAAALHNLDEAVKFDMGAYKSSKDDAKITVILRISKTQLYVTAQDEDQPVLLKEMPEIPKTITGSETNLLFFWETHGTKNYFTSVAHPNLFIATKQDYWVCLAGGPPSITDFQILENQA
On to B9, for which, in the experiment with human CD8 alpha [4], the “EC50 CD8 cell line (SEAP, HekBlue-IL-1β)” value is 0.0008 ng/mL and the “Ratio (EC50 parental / CD8 cell line)” value amounted to 4320. Besides, in the experiment with IL-1R (IL-1 Receptor) [5], the “EC50 parental cell line” value came out at 3.5 ng/mL.

B10: CD8 VHH_5GGS_Fc_hole + Fc-knob_20GGS_IL1α delta 1-6_I18A (Fc fusion)
chain 1: B1 chain 1
chain 2: [letters of human IgG1 Fc with changes not shown]GGSGGSGGSGGSGGSGGSGGSGGSGGSGGSGGSGGSGGSGGSGGSGGSGGSGGSGGSGGSLSNVKYNFMRIAKYEFILNDALNQSIIRANDQYLTAAALHNLDEAVKFDMGAYKSSKDDAKITVILRISKTQLYVTAQDEDQPVLLKEMPEIPKTITGSETNLLFFWETHGTKNYFTSVAHPNLFIATKQDYWVCLAGGPPSITDFQILENQA
As to B10, in the experiment with IL-1R (IL-1 Receptor) [1], the “NF-KB signal, -CD8 cells, 1 ng/ml” value was 0.01 rel. to 100 ng/ml IL1α; the “NF-KB signal, -CD8 cells, 10 ng/ml” value is 0.02 rel. to 100 ng/ml IL1α; the “NF-KB signal, -CD8 cells, 100 ng/ml” value is 0.04 rel. to 100 ng/ml IL1α; the “NF-KB signal, -CD8 cells, 1000 ng/ml” value is 0.25 rel. to 100 ng/ml IL1α.

B11: CD8 VHH_5GGS_Fc_hole + Fc-knob_20GGS_IL1α delta 1-6_C141S (Fc fusion)
chain 1: B1 chain 1
chain 2: [letters of human IgG1 Fc with changes not shown]GGSGGSGGSGGSGGSGGSGGSGGSGGSGGSGGSGGSGGSGGSGGSGGSGGSGGSGGSGGSLSNVKYNFMRIIKYEFILNDALNQSIIRANDQYLTAAALHNLDEAVKFDMGAYKSSKDDAKITVILRISKTQLYVTAQDEDQPVLLKEMPEIPKTITGSETNLLFFWETHGTKNYFTSVAHPNLFIATKQDYWVSLAGGPPSITDFQILENQA
In the case of B11, in the experiment with IL-1R (IL-1 Receptor) [1], the “NF-KB signal, -CD8 cells, 1 ng/ml” value was 0.02 rel. to 100 ng/ml IL1α; the “NF-KB signal, -CD8 cells, 10 ng/ml” value was 0.02 rel. to 100 ng/ml IL1α; the “NF-KB signal, -CD8 cells, 100 ng/ml” value is 0.17 rel. to 100 ng/ml IL1α; the “NF-KB signal, -CD8 cells, 1000 ng/ml” value is 0.79 rel. to 100 ng/ml IL1α. Besides, the “EC50 mock transfected” value with IL-1R (IL-1 Receptor) [6] was found to be 569 ng/mL. For the same molecule, the “EC50 parental cell line” value with IL-1R (IL-1 Receptor) [5] was found to be 290 ng/mL.
